# Reference: publication PMC4336329 (PLoS ONE, 2015)
# In all, about 310,000 compounds went through this assay and about 2,200 (0.71%) showed an effect of 50% or more. The effect is printed as a negative number. The list shows a part of the results.
# Target: human ether-à-go-go-related gene (hERG) potassium channel (human, UniProt Q12809)
# Assay: primary screen, population patch clamp on CHO cells stably expressing hERG
# human ether-à-go-go-related gene (hERG) potassium channel, sequence (Q12809 whole entry, looked up): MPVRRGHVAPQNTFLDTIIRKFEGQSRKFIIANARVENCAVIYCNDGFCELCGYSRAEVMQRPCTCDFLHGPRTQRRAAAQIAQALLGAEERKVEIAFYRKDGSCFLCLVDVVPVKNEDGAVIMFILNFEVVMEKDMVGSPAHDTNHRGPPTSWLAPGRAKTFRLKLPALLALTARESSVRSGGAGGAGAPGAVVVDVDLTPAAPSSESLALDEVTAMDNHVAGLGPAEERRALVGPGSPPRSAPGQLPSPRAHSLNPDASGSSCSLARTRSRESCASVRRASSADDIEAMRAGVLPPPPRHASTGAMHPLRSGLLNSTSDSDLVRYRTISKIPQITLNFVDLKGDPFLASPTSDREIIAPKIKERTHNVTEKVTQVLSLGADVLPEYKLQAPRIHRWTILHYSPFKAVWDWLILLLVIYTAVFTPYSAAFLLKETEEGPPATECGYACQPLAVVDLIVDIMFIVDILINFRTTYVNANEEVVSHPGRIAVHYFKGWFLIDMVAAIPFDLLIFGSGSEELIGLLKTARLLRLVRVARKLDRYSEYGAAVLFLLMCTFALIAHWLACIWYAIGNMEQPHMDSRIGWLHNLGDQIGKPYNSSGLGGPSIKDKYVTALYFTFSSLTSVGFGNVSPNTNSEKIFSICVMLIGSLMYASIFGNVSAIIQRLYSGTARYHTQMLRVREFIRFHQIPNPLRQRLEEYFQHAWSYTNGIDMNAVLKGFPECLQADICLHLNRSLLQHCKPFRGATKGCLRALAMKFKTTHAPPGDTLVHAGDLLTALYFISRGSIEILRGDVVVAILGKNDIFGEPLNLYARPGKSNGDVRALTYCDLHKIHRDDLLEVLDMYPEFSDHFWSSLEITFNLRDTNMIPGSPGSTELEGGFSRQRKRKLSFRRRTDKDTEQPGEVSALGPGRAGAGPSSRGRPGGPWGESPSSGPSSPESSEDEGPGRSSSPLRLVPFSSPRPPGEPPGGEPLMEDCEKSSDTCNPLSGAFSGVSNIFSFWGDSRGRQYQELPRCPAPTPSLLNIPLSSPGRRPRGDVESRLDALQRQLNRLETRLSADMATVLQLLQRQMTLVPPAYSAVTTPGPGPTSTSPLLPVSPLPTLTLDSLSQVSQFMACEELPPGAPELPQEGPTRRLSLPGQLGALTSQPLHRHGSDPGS
row,Structure (SMILES),"hERG current change (%, negative = inhibition) at 1uM [%]"
1,C=C(C(=O)Oc1ccccc1C(C)(C)C)c1ccccc1,4.97
2,CCOc1ccc(-c2nnc(SCC(=O)Nc3ccc4c(c3)c3ccccc3n4CC)n2N)cc1,17.7
3,N#Cc1ccc(C(=O)NC2=NCCS2)cc1,12.2
4,COc1cccc(C(C(=O)NC(C)(C)C)N(Cc2ccc(F)cc2)C(=O)CCC(=O)Nc2cc(C)on2)c1OC (stereo not shown),3.3
5,O=C1CSC(=S)N1/N=C/c1ccc2c(c1)OCCO2,17.8
6,COc1ccc(C(=O)NCC(C)NC(=O)c2ccc(OC)c(OC)c2)cc1OC (stereo not shown),6.07
7,COc1ccccc1NC(=O)c1ccc(NC(=O)Cc2n[nH]c(=O)c3ccccc23)cc1,0.173
8,CCCS(=O)(=O)NCc1cn2cccc(C)c2n1,9.05
9,CCC(=O)Nc1cc(-c2nn(CC(=O)N3CCCCC3)c(=O)c3ccccc23)ccc1N1CCOCC1,8.9
10,O=C(Nc1ccc(S(=O)(=O)N2CCCCCC2)cc1)C1CCCO1 (stereo not shown),-12.9
11,COc1cccc(-n2cnc3cccc(N)c32)c1,12.8
12,Fc1ccc(C(c2nnnn2C2CCCC2)N2CCc3ccccc32)cc1 (stereo not shown),6.53
13,C=CCN(CC=C)C(=S)NC(=O)c1ccc(C)c(Br)c1,15.9
14,O=C(C(Cc1ccccc1)N1C(=O)c2ccccc2C1=O)N1CCc2ccccc21 (stereo not shown),14.6
15,CCOCC(=O)Nc1ccc(S(=O)(=O)NCCc2ccccc2)cc1,-0.569
16,CCOC(=O)C1CCN(c2ccc(C(=O)O)cc2[N+](=O)[O-])CC1,9.19
17,O=C(NC1CCCC1)c1ccc(CS(=O)(=O)Cc2ccccc2Cl)o1,7.8
18,COc1ccc(NC(=O)COC(=O)C(CC(C)C)N2C(=O)C3CC=CCC3C2=O)cc1Cl (stereo not shown),1.03
19,CC(C)(C)OC(=O)CC[C@@H](C(=O)N1CCN(C(=O)OC(C)(C)C)CC1)n1cc(C(CO)NC(=O)OC(C)(C)C)nn1 (stereo partly shown),14.2
20,O=C(COC(=O)c1ccco1)Nc1ccc([N+](=O)[O-])cc1Cl,8.85
21,COc1ccc(OC)c(-n2c(-c3cccc(O)c3)n[nH]c2=S)c1,10.2
22,O=c1c(C(c2ccccc2)c2c(O)nc3n(c2=O)CCCS3)c(O)nc2n1CCCS2,13.9

row,Structure (SMILES),"hERG current change (%, negative = inhibition) at 1uM [%]"
1,Cc1ccc2nc(SCC(=O)c3cc(C)n(C)c3C)[nH]c2c1,-7.16
2,CCOC(=O)C(=CNCC(=O)O)C(=O)OCC,-0.725
3,CCOc1ccc(CNC(=O)Cn2ccc3cc(S(=O)(=O)N4CCCCCC4)ccc32)cc1,7.48
4,O=[N+]([O-])c1ccccc1-c1ccc(C(=S)N2CCN(c3ccccc3)CC2)o1,9.31
5,CC1Cc2ccccc2N1C(=O)COC(=O)Cn1nnc(-c2ccccc2)n1 (stereo not shown),12.9
6,COc1ccc(C(=O)Nc2ccc3ccccc3n2)cc1OC,15.5
7,C1CN(CCN2CCOCC2)CCN1,14.9
8,CCOc1cc(CNCC(C)C)cc(Cl)c1OCc1ccccc1,11.5
9,CC(C)CC(=O)NC1(C(F)(F)F)C(=O)Nc2c1c(=O)[nH]c(=O)n2Cc1ccco1 (stereo not shown),15.6
10,Cc1c(C=O)c(=O)n(-c2ccccc2)n1C,18.2
11,O=C(CCCCCn1c(=O)[nH]c2ccccc2c1=O)NCCc1c[nH]c2ccccc12,-0.725
12,Cc1ccc(C(=O)c2c3ccc([N+](=O)[O-])cc3[n+]([O-])n2CCC[NH3+])cc1.O=C([O-])C(F)(F)F,-14.7
13,COC(=O)C1=C(c2ccc(F)cc2OCc2ccccc2)C[C@@H]2CC[C@H]1N2C(=O)NCc1ccc(C(C)(C)C)cc1,17.7
14,COc1ccc(NS(=O)(=O)c2ccc3[nH]c(=O)[nH]c3c2)cc1OC,17.6
15,Cc1cc(N2C(=O)C3C4c5ccccc5C(c5ccccc54)C3C2=O)no1 (stereo not shown),9.61
16,COC(=O)C1=C(c2ccccc2OCc2ccccc2)C[C@@H]2CC[C@H]1N2C(=O)NCc1ccccc1,-4.02
17,COC(=O)c1cc(NC(=O)c2ccc(Cn3cc(Cl)cn3)o2)cc(C(=O)OC)c1,8.09
18,COc1cccc(/C=N/NC(=O)CNC(=O)CCc2ccccc2)c1O,24.6
19,Cc1ccc(C(=O)NCCCNC(=O)c2ccccn2)cc1,11.1
20,COc1ccccc1NC(=O)CSc1nnc(Cc2cc(=O)[nH]c(=O)[nH]2)n1-c1ccccc1,0.423
21,CC1CCCCN1CC(O)COCc1ccccc1.Cl (stereo not shown),13.8
